# Laboratory results: article PMC4336329 (PLoS ONE, 2015)
# Among all 310,000 compounds or so, about 2,200 (0.71%) showed an effect of 50% or more. Effects have a minus sign here. Some of the results follow.
# Molecular target: human ether-à-go-go-related gene (hERG) potassium channel (human, UniProt Q12809)
# Assay: primary screen, population patch clamp on CHO cells stably expressing hERG
# Chain of human ether-à-go-go-related gene (hERG) potassium channel (Q12809 whole entry, looked up): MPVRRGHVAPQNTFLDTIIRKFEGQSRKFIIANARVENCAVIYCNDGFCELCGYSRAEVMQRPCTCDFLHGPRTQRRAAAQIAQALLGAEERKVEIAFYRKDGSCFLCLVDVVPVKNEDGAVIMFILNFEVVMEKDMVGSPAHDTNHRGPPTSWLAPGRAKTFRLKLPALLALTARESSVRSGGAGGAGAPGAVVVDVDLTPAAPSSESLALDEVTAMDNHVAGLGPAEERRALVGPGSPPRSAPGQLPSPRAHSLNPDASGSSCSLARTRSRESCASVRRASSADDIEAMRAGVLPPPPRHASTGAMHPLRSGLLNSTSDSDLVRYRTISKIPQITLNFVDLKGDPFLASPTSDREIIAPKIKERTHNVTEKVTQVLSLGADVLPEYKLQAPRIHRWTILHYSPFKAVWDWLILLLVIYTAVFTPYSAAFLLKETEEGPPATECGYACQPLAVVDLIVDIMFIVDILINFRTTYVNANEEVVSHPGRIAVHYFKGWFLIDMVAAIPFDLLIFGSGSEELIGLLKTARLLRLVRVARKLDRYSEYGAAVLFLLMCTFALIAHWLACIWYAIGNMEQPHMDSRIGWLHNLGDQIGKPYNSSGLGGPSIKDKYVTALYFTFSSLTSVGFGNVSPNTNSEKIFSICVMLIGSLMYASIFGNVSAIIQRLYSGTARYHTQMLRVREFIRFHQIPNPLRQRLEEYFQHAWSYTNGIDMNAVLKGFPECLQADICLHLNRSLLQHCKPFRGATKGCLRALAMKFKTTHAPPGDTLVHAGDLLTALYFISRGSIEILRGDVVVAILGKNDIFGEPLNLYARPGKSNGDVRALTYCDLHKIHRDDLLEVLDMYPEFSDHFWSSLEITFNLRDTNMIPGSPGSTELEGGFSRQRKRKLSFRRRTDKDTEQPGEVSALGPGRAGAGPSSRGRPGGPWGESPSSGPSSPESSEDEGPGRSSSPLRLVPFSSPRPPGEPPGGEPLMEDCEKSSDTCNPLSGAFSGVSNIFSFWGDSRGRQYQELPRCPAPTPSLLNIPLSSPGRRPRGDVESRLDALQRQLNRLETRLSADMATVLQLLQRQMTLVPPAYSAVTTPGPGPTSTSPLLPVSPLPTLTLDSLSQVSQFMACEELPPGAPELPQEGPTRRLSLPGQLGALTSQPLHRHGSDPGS
row,SMILES,"hERG current change (%, negative = inhibition) at 1uM"
1,CC(C)C(=O)N1CCN(c2ccc(NC(=O)c3ccco3)cc2Cl)CC1,8.51%
2,Cc1cccn2c(=O)c(C=O)c(Nc3ccc(S(N)(=O)=O)cc3)nc12,6.17%
3,CCn1cc(C(=O)NCCc2ccc(C)cc2)c(=O)c2cc(S(=O)(=O)N(C)C)ccc21,9.74%
4,O=C(COc1ccc(S(=O)(=O)Nc2ccc(Cl)cc2)cc1)N1CCOCC1,-3.99%
5,CN1C(=O)C2(OCC(COc3ccc(Cl)cc3)O2)c2ccccc21 (stereo not drawn),13.7%
6,C=CCn1cc(-c2cccc(Cl)c2)cc(C#N)c1=O,12%
7,CC(=O)C1CCC2C3CCC4CC(O)CCC4(C)C3CCC12C (stereo not drawn),10.8%
8,O=C(/C=C/c1cccc(F)c1)N1CCc2ccccc21,12.5%
9,COc1ccccc1C(=O)NNC(=O)c1csc(N2CCOCC2)n1,10.8%
10,C/C(=N/NC(=O)CCc1c(C)n[nH]c1C)c1cccc([N+](=O)[O-])c1,14%
11,O=C(Nc1ccccn1)c1cc(-c2cccnc2)nc2ccc(Br)cc12,7.74%
12,COc1ccc(/C=C2\COc3ccccc3C2=O)c(OC)c1,14.3%
13,COC(=O)c1ccc(CSc2nnc(-c3c[nH]c4ccccc34)n2-c2ccccc2)cc1,7.08%
14,COc1cc2[nH]c(C(=O)N3CCN(c4ccccc4F)CC3)cc2c(OC)c1OC,12.7%
15,O=C(CSc1nncc2ccccc12)N1CCCCC1,9.98%
16,CCCCCc1c(C)c(C#N)c2nc3ccccc3n2c1-n1ccnc1C,-5.82%
17,Cc1ccc(C)c(NC(=O)COC(=O)c2cccc3c2C(=O)c2ccccc2C3=O)c1,10%
18,CCn1c(SCC(=O)N(C)Cc2ccc(OC)c(F)c2)nc2cc(S(N)(=O)=O)ccc21,9.15%
19,Cc1ccccc1OCC(=O)Nc1ccccc1C(=O)NC1CC1,8.41%
20,O=C(Nc1nc2ccccc2[nH]1)c1cccc(Br)c1,10.8%
21,O=C(CCCCCBr)N1CCC(CC2CC(c3ccc(Cl)cc3)=NO2)(C(=O)NCC2CCCCC2)CC1 (stereo not drawn),-37.5%
22,CCC(C)N(C)C1CCN(C(=S)Nc2cccc(SC)c2)CC1 (stereo not drawn),-17.6%
23,CC(C)[C@H](NC(=O)Nc1cccc(C(F)(F)F)c1)C(=O)O,11.9%

row,SMILES,"hERG current change (%, negative = inhibition) at 1uM"
1,CCOC(=O)C1Nc2ccc(Br)cc2C2C=CCC12 (stereo not drawn),11.2%
2,CCOC(=O)C1Cn2c(nc3c(c2=O)C(C)(CC)Cc2ccccc2-3)S1 (stereo not drawn),13.2%
3,Cc1ccccc1NC(=O)C(=O)N/N=C/c1cccc(Br)c1,4.04%
4,COc1ccc(CN2CCCC(C(=O)c3sccc3C)C2)cc1O (stereo not drawn),-32.9%
5,O=C(C[n+]1cccc(CNC(=O)c2ccc(OC(F)F)cc2)c1)Nc1ccc(F)cc1.[Cl-],6.51%
6,O=C1CC2(CCN(C(=O)COc3ccccc3F)CC2)Oc2ccccc21,-12.6%
7,CC(C)(C)OC(=O)N1CCCC1C(=O)NCCc1ccccc1 (stereo not drawn),9.94%
8,COc1cccc(CNC(=O)COC(=O)c2c(C)nn(-c3ccccc3)c2Cl)c1,4.31%
9,N#Cc1c(NC(=O)c2ccccc2Cl)n(Cc2ccccc2)c2nc3ccccc3nc12,11.9%
10,COc1cccc(-c2nc(S(=O)(=O)c3ccccc3)c(N3CCOCC3)o2)c1,-1.82%
11,CC(=O)Cc1ccccc1OC(=O)c1ccco1,13.7%
12,COCCOc1ccc(C(F)(F)F)cc1NC(=O)COC(=O)c1c(C)noc1C,2.25%
13,Cc1ccc(CNC(=O)C(=O)NCCC2CCCCN2S(=O)(=O)c2ccccc2)cc1 (stereo not drawn),-0.32%
14,COCCNC(=S)N(c1ccccc1)C(C)C,1.87%
15,CCOC(=O)N1CCN(C(=O)C2CCCN(S(=O)(=O)c3ccc(F)cc3)C2)CC1 (stereo not drawn),4.93%
16,CCCCNC(C(=O)Nc1ccc([N+](=O)[O-])cc1Br)c1ccccc1 (stereo not drawn),10.5%
17,O=C(Nc1ccccc1)c1cccn(Cc2ccccc2)c1=O,17.6%
18,CC(C)c1ccc(NC(=O)Cc2c(C(=O)O)n(C)c3ccccc23)cc1,12%
19,O=C1C(Cl)=C(Nc2ccccc2)C(=O)c2ccccc21,10.6%
20,COc1ccc(C)cc1NCc1ccc(OC)c(C)c1OC.O=C(O)C(=O)O,-0.016%
21,Cc1nc2c(C)c(C)c(C)c(C)c2nc1C,10.2%
22,O=C(c1ccc(Cn2cc([N+](=O)[O-])cn2)o1)N1N=C(C(F)F)CC1(O)C(F)F (stereo not drawn),-2.42%
